# Data reported in the supplement of paper PMC11417369.
# The other results are listed elsewhere or left out.
# System: PfHDP1 homeodomain (GST-tagged)
# Assay: gcPBM binding intensity (ln(normalized median fluorescence intensity)); higher = stronger DNA binding
# Method in brief: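 Binding intensity values are the highest Masliner-normalised natural-log median intensity among replicate spots of either probe orientation. The binding step lasted 1 h in 1× PBS with 1% milk, 0.2 mg/ml BSA, 0.5% salmon testes DNA and 0.03% Triton X-100, using GST-tagged P. falciparum DNA-binding domains expressed in E. coli on an Agilent 4 × 180k array of primer-extended double-stranded 36-bp intergenic genomic probes plus negative controls. Alexa488 anti-GST antibody and a 488 nm scan detected bound protein.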
row,Sequence,gcPBM binding intensity (ln)
1,TTGGGTCAAACATAAACACACACAAAAAGAAAAAAT [CACACA_site8328],6.85
2,TATTATATTAATGATGGTACAGTGTATATATATAAT [XGTACX_site1286],6.99
3,TCATAGTATGGACACACACACACACCCATATATATA [CACACA_site5033],6.94
4,TTTCCATATTTTTAAAGTACATATTTCCGTTTCCAC [XGTACX_site7832],6.26
5,ACATATAATATAAAGTGTACAAGAAAATAAAAATAA [XGTACX_site1273],6.85
6,GGGATATTTTAAAGGGTGCATATTATTAAAATAATG,8.15
7,TTATTTGATTACTTGCGTACTTATTTCATATTTTTT [XGTACX_site6648],6.72
8,ATGAGAAAACATAAAAGTACAAAAAGAAAAAAAAAA [XGTACX_site6020],6.24
9,AATTATTTCTTTTACACATGCAATATTTAATTAAAA [TGCATGCA_site598],7.06
10,TTTAAATGCTTTTTGTGGTGACTTATCCTTTCATAA [XGTACX_negctrl_site109],6.61
11,AATTTAAGCAGAACATATATATATATATATATAAAG [CACACA_negctrl_site769],7.12
12,TATATGCTATAATATACACACATACCTATATTTATA [CACACA_site6383],7.13
13,ACATATTAAAATATATGTACATAAAATATGAAAAAA [XGTACX_site5869],6.79
14,ATATTTATTCCTTTTGGTACACAAAAAAAAAAAAAA [XGTACX_site8126],6.64
15,TTAAAATTCAAAAAAAAAAATCAGAATATCAGAAAA [CACACA_negctrl_site1361],5.92
16,TATATAACATAATATACACACATTATATGCGTAATT [CACACA_site6098],6.51
17,ATTAAAGAAATATATACACACATTATGGGGGAATAA [CACACA_site178],7.28
18,GATATATAAATAAATACACACATAAAATAGAAATAT [CACACA_site6881],6.81
19,GTTAGGATAGATTAGACATGCACATAAATGCACTTC [TGCATGCA_site561],10.6
20,TTTTTATAGAATTTAACACACATTTCATATAAAAAA [CACACA_site7453],6.25
21,CATAATACAAATGTGATACCTGAAAATGACTTATTA [CACACA_negctrl_site994],6.09
22,TTCTTTTTTGTAATAACACACACACTAACAGAAAAA [CACACA_site8646],7.01

row,Sequence,gcPBM binding intensity (ln)
1,GAATTAATTTTAAAACGTACATGGGTGTATTTACAC [XGTACX_site5939],6.88
2,TGCTACATAATATGTACACACATATACATATTTATA [CACACA_site6545],6.55
3,TATCACATTTATGAGAGTACATAATTAATTCATGAT [XGTACX_site7850],6.1
4,GTATGATTAAATAAAGGTACACTTATATTTATTTAT [XGTACX_site6966],6.21
5,ATTGATACATCCAATACACACTACAGATAATGATGT [CACACA_site5098],6.58
6,GTAATAAATTAAATATGTACATATTAAAATTAAGGA [XGTACX_site2290],6.52
7,TTGGAATAATATAAATAAATAAATATATATATATAT [CACACA_negctrl_site900],8.97
8,ATACAACAGATATATACACACATATAACAATAATAA [CACACA_site7560],6.76
9,TTTCTTTTTGTTCGTGTACACACATGAAATTTATAA [CACACA_site8466],7.35
10,AAAAAAAAAAAATGTGCACACGCGTACACCCAAAAA [CACACA_site8614],8.02
11,CAATTTTTATGTGTGTGTACTCATTTGTTTTATAAA [XGTACX_site406],6.82
12,TTTTATTTTATATAACAACAAAATGGAAATATATAT [GTGCAC_negctrl_site71],6.56
13,ATATTATGAAGGGATATTTTCAAAAATATTAGGAGA [CACACA_negctrl_site942],6.73
14,TAAATGAAAATAAATTAACACACAATTTTAATATTG [CACACA_site8360],5.92
15,GTCAATATTTAGATATGTACTAAGGAGTGCTATATA [XGTACX_site222],6.39
16,AATTATACATATATTTAACACACATTTTATAAAGTG [CACACA_site8362],6.45
17,ATATATATATATAATTGTACATGTGTGTATAATTTG [XGTACX_site2417],8.92
18,ATTTATTTATATACAAGTACATAAAAAATTAACTTA [XGTACX_site6170],5.89
19,TATTTGATAAAAAAAAGTACTAGAATTTCGCTTTTG [XGTACX_site7754],6.08
20,TAAAAATTAAAATGTTGTACAATGATAAAATATTAT [XGTACX_site7874],6.74
21,TAAATTGAAATATATTGTACATTATCAACTAAGGGA [XGTACX_site1635],6.31
22,CTCAACATATACGTAACACACATATAAATATAAATA [CACACA_site7749],6.63

row,Sequence,gcPBM binding intensity (ln)
1,AAATTATAAAATAACTGTACCAATCCTTTTTTTTTA [XGTACX_site2229],5.84
2,TTATTCTACATATATGCATGTGTATGATCTGTTTAT [TGCATGCA_site782],6.6
3,CATATATACCTATATACACACATATAGATTTATATA [CACACA_site6451],6.63
4,TGATATTATCTCTTCACACACTCACATACAGACAAA [CACACA_site1246],6.78
5,AAAATAAAAAAAATGTAAAAGGTTAAAGTGAAATAT [CACACA_negctrl_site350],6.75
6,ATATAAATGATATGTACACACATTTATATATATAAA [CACACA_site3475],6.57
7,AATCTAATATAATGCACACATAAAAAAAAATCAAAC [CACACA_site3633],10.7
8,TATTATATGTAGTTGAGTACATATAAATACATATAT [XGTACX_site7933],6.43
9,AAATAGTTAAAAAGGCGTACACATAAATAAATAAAT [XGTACX_site2096],6.8
10,GTATATATATATATATATATAATAGTAACTTTTACT [CACACA_negctrl_site608],7.01
11,TGTAGTCTGGAGAAAAGTACATAGTATCTGGTAACA [XGTACX_site4940],6.51
12,TTTTAATTTTAAAAATGTACTTTTATTATTTTTAAT [XGTACX_site8300],6.19
13,ATGAATAAAAAAGGTGGTACATATATATATATATAT [XGTACX_site7893],9.39
14,ATACATATATAATTATGTACGTATATTTTATATAAC [XGTACX_site4292],6.14
15,AAAATAATATAAATAATATAAGTGAGCATATATATA [TGCATGCA_negctrl_site527],8.69
16,TGTCTTGTAAATTATTGTACTATTTAAAGTATAAAA [XGTACX_site7863],6.08
17,TACAGACATACATACACACATACATACAGACATACA [CACACA_site1941],6.84
18,CACACGCACGAACACACACACACACGCACGCACATA [CACACA_site6305],8.28
19,TATATTTAATTATTTTGTACTCATATAAAGATGATG [XGTACX_site5488],6.58
20,AAAAAAAAAATATTTGAACACACGAGGATATATAAA [CACACA_site139],6.54
21,TACATATTTACTATCACACACACGATATAAATAAAT [CACACA_site6701],6.63
22,CATATAGATTTGTTCACACACACACTAAAAAAAAAA [CACACA_site7212],6.7

row,Sequence,gcPBM binding intensity (ln)
1,ATATTCAATTCATACACACACAATTTAAGAATGATA [CACACA_site3883],6.7
2,AATAAAATTTGCGATGCACACAGAATAGCTAATATG [CACACA_site8983],8.15
3,TTATTTTACTTTTATGCAACTAAAAATATTGCTATA [XGTACX_negctrl_site277],8.21
4,ACAAATGTGAGAAAGACACACATATAATAAAAAACA [CACACA_site1156],6.47
5,TATATAAGAATTTTTACACACATGAAAATGTAGATA [CACACA_site3735],6.19
6,TATTTAATGTGATACTTATATTATTTTATGATTAAA [GTGCAC_negctrl_site25],6.16
7,TATACATACTCACCCACACACAAAAAAAAAAAAAAA [CACACA_site862],6.43
8,AAAAAGGTTATTGGTACACACATATGTATATATATA [CACACA_site552],7.56
9,ATAATATATATATTAACACACATCCTTTTATGTATA [CACACA_site1203],6.67
10,TTATAATAATTTTATGCACACAGAAAAATACAAGGT [CACACA_site9169],10.2
11,GAACCGTGCAAATGTTGTACACTTTAAAAATATTCT [XGTACX_site4488],9.86
12,ATATGTGTGTAGTGTTCAATTATATTGATGTGAAGG [TGCATGCA_negctrl_site462],6.91
13,AAAACGAAAATTTGGAAACCAAAGGAAAAACATAAT [GTGCAC_negctrl_site709],6.87
14,TACATATAGAAACACACACACATATATATATATATA [CACACA_site1300],9.43
15,TAGGAGCCTAGACACACACACAAAAAAAAAAAAAAA [CACACA_site6911],6.17
16,AAAAAAAAAAAATAATAAATAAATAAAAATAAATGA [CACACA_negctrl_site1623],6.19
17,ATTTTATTAATTTGGTGTACTTAATTTATATTTTTC [XGTACX_site4947],6.4
18,CCTCCATTAGATACTTGTACATAAAAGTTTTGATTG [XGTACX_site7428],6.37
19,AATCATAAAATCATATGTACACATTTTTCCTATGAT [XGTACX_site8799],6.67
20,AGACTTTGTACAAACACACACATGAACACAATATTA [CACACA_site1360],7.06
21,ACAAAATAAAAACACACACACAAACACAAAAAAATA [CACACA_site3390],6.92
22,AGAAGGTAAAAACACACACACACATACAAAAAAAAA [CACACA_site3767],6.72
